Source: PubChem BioAssay AID686978 (National Center for Advancing Translational Sciences (NCATS), 2013)
In all, about 420,000 compounds went through this assay and about 64,000 (15%) were called active. The inconclusive results got no clear call from the source; some entries with a clear call stand among them for comparison. Calls follow the shape of the dose curve; as a rule, active = well fitted inhibition curve with a large enough effect; inconclusive = small, poorly fitted or top-dose-only effect; inactive = flat fitted curve, though single readings scatter. Potencies of inconclusive entries are left out as doubtful fits.

Test: qHTS for Inhibitors of human tyrosyl-DNA phosphodiesterase 1 (TDP1): qHTS in cells in absence of CPT; also: nearly all actives have a fitted effect of over 55% in size
Details: DT40 Tdp1-/- hTDP1 cells, no CPT, ATP luminescence, 48 h; series mostly up to 46.2 µM
How it was run: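 Luminescent ATP content (CellTiter-Glo) served as the growth readout. Knockout chicken DT40 cells expressing human TDP1 were exposed to compounds without camptothecin for a minimum 48 hr at 37 °C.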
Potency is read from the fitted curve at half-maximal effect; tags tell the direction and shape of the fitted curve.

Compound	Potency
CC(C(=O)Nc1ccc2c(c1)OCCO2)N1Cc2ccccc2C1=O (stereo not given)	inactive
CC(=O)Nc1ccc(Nc2ccc3c4c(cc(=O)n3C)-c3ccccc3C(=O)c24)cc1	active: 6.51 µM
CCN(c1ccccc1)S(=O)(=O)c1ccc(Cl)c(NC(=O)CSc2nncs2)c1	inconclusive [inhibitor, single point]
COCC(C)n1c(SCC(=O)NC2CCCCC2C)nc2ccccc2c1=O (stereo not given)	inconclusive [inhibitor, single point]
Cc1noc(C)c1NC(=O)N(C)C[C@H]1Oc2ccc(NC(=O)C3CCCCC3)cc2C(=O)N([C@H](C)CO)C[C@@H]1C	inactive
COc1ccccc1N1CCN(C(=O)c2cc3c(=O)n(Cc4cccs4)ccc3nc2C)CC1	inconclusive [inhibitor, single point]
COCCCNC(=S)N/N=C/c1ccc(OC)cc1	inactive
c1ccc(CCN=C2CCCc3c2[nH]c2ccccc32)cc1	inactive
Cc1ccc(-n2ncc3c(NCCCn4ccnc4)ncnc32)cc1C	inconclusive [inhibitor, single point]
O=C(CN(C1CCCCC1)S(=O)(=O)c1ccc(Cl)cc1)NCc1cccnc1	active: 16.4 µM
Cc1cc(N(CCO)CCO)ccc1N=Nc1cc(F)ccc1F	inconclusive [inhibitor, single point]
O=C(CCn1c(=O)c2sccc2n(CC(=O)OCc2ccccc2)c1=O)NCc1ccco1	inconclusive [inhibitor, single point]
O=C(c1cnn2cccnc12)N1CCOc2ccc(C(O)C(c3ccccc3)c3ccccc3)cc2C1 (stereo not given)	inconclusive [inhibitor, single point]
COc1cc(OC)cc(N(C(=O)CNC(=O)c2ccco2)C(C(=O)NCC2CCCO2)c2ccccc2)c1 (stereo not given)	inconclusive [inhibitor, partial curve, poor fit]
COc1ccccc1-c1cc(C(=O)Nc2cc(C)n(Cc3ccc(Cl)cc3)n2)no1	inactive
CCCNc1c(NC(=O)C2CCC(C)CC2)c(=O)oc2ccccc12 (stereo not given)	inconclusive [inhibitor, full curve, poor fit]
CCCNC(=O)CNC(=O)c1ccccc1OCC(=O)Nc1ccc(Br)cc1	inconclusive [inhibitor, single point]
O=S(=O)(c1ccc(SCCOc2ccc(F)cc2)nc1)N1CCCC1	inconclusive [inhibitor, single point]
O=[N+]([O-])c1cccc(S(=O)(=O)N2CN(c3ccc(Br)cc3)c3nc4ccccc4nc32)c1	inactive
CCc1ccccc1N(CC(=O)Nc1cccc(N(C)S(C)(=O)=O)c1)S(C)(=O)=O	inactive
COc1ccccc1-c1ccc2c(c1)O[C@@H](CN(C)C(=O)Nc1cccc(F)c1)[C@H](C)CN([C@H](C)CO)S2(=O)=O	inconclusive [inhibitor, single point]
C[C@H](CO)N1C[C@H](C)[C@@H](CN(C)Cc2ccccc2)Oc2c(NC(=O)Cc3ccccc3)cccc2C1=O	active: 10.3 µM
CCNC(=O)NC(=O)C(C)Sc1ncc(C(F)(F)F)cc1Cl (stereo not given)	inconclusive [inhibitor, partial curve]

Compound	Potency
COc1ccccc1NC(=O)N1CCN(c2ccc3nnc(-c4ccc(F)cc4)n3n2)CC1	inconclusive [inhibitor, single point]
Cc1nn(CCc2nc(-c3ccco3)cs2)c2[nH]c(=O)cc(C(F)(F)F)c12	inconclusive [inhibitor, single point]
COc1ccc(C(=O)Nc2ccc3ncccc3c2)cc1	inconclusive [inhibitor, partial curve]
O=[N+]([O-])c1ccc(/C=C/c2ccncc2)cc1	active: 13 µM
Cc1ccc(NC(=O)CN2c3cccc4cccc(c34)S2(=O)=O)cc1S(=O)(=O)N1CCOCC1	active: 18.4 µM
Cc1ccc(C(=O)Nc2ccccc2N2CCCC2)cc1	inconclusive [inhibitor, single point]
CC(=O)OC1C(N2CCCCC2)c2c(ccc(/C=C/C(=O)N3CCCCC3)c2O)OC1(C)C (stereo not given)	inconclusive [inhibitor, single point]
Nc1nc2[nH]cc(CCc3ccc(C(=O)N[C@@H](CCC(=O)O)C(=O)O)cc3)c2c(=O)[nH]1	active: 0.0299 µM
CCOC(=O)C(=O)Nc1nnc(COc2ccccc2)s1	inactive
Cn1c(SCc2nc3ccccc3[nH]2)nnc1-c1cccs1	inactive
COc1ccccc1CC(=O)Nc1ccc(-c2noc(COc3ccc(Br)cc3)n2)cc1	inactive
C=CC(=O)Nc1cccc(Nc2nc(N[C@H]3CC[C@H](N(C)C)CC3)nc3c2ncn3C(C)C)c1	active: 0.206 µM
NNC(=O)c1ccc(CN2C(=O)c3cccc4cccc2c34)cc1	inconclusive [inhibitor, single point]
Cc1ccc2nc(Cl)c(/C=N/Nc3nc(C)cc(C)n3)c(=O)n2c1	inconclusive [inhibitor, single point]
Cc1nc(CNS(=O)(=O)c2ccc3ccccc3c2)cs1	inconclusive [inhibitor, single point]
Cc1ccc(/C=C/c2nc3ccccc3s2)s1	inactive
N#CCCn1c(=O)c(CCc2ccccc2)nc2cnc(N3CCOCC3)nc21	inactive
Cn1c(CCNC(=O)c2cc(COc3ccc(F)c(F)c3)on2)nc2ccccc21	inconclusive [inhibitor, single point]
O=C1CCC2c3[nH]c4ccccc4c3CCN12 (stereo not given)	inactive
Cc1ccc(-c2csc(NC(=O)c3ccc(S(=O)(=O)N4CCc5ccccc54)cc3)n2)cc1	inconclusive [inhibitor, partial curve]
CCOC(=O)c1c(C)oc2ncnc(Nc3cccc(C(F)(F)F)c3)c12	inactive
CC1(C)Oc2ccc(NC(=O)c3ccco3)cc2O1	inconclusive [inhibitor, partial curve]
